Results: publication PMC12646233 (Proceedings of the National Academy of Sciences of the …, 2025)

Target: the molecule itself
Experiment: SEC + native gel or EMSA; Superdex 200 Increase 10/300 GL fractionation of purified liver polymers; fractions assessed by nondenaturing PAGE

B1: Z α1-antitrypsin (Glu342Lys) polymers isolated from human explant liver tissue (natural protein)
chain: not shown
modifications: glycosylation site at Asn83
notes: alpha-1-antitrypsin, human, Z variant (Glu342Lys, rs28929474), as polymer chains of heterogeneous length; Polymers of varying length; also called ZZ; Z α1-antitrypsin liver polymers; source: purified from explant liver tissue of a PiZZ individual (inclusion bodies, sonication, copper IMAC, anion exchange, SEC)
- stoichiometry N: 3 subunits to 6 subunits (2×) and 2 and 3

“And” between values parts separate entries of the source, which are not always exact repeats. Equal values may be shown once.
